Assay results taken from PMC4336329 (PLoS ONE, 2015).
The whole screen tested about 310,000 compounds, of which about 2,200 (0.71%) showed an effect of 50% or more. The effect is printed as a negative number. This is one part of the list.

The compounds below were run against human ether-à-go-go-related gene (hERG) potassium channel (human, UniProt Q12809) (assay: primary screen, population patch clamp on CHO cells stably expressing hERG).
human ether-à-go-go-related gene (hERG) potassium channel, sequence (Q12809 whole entry, looked up): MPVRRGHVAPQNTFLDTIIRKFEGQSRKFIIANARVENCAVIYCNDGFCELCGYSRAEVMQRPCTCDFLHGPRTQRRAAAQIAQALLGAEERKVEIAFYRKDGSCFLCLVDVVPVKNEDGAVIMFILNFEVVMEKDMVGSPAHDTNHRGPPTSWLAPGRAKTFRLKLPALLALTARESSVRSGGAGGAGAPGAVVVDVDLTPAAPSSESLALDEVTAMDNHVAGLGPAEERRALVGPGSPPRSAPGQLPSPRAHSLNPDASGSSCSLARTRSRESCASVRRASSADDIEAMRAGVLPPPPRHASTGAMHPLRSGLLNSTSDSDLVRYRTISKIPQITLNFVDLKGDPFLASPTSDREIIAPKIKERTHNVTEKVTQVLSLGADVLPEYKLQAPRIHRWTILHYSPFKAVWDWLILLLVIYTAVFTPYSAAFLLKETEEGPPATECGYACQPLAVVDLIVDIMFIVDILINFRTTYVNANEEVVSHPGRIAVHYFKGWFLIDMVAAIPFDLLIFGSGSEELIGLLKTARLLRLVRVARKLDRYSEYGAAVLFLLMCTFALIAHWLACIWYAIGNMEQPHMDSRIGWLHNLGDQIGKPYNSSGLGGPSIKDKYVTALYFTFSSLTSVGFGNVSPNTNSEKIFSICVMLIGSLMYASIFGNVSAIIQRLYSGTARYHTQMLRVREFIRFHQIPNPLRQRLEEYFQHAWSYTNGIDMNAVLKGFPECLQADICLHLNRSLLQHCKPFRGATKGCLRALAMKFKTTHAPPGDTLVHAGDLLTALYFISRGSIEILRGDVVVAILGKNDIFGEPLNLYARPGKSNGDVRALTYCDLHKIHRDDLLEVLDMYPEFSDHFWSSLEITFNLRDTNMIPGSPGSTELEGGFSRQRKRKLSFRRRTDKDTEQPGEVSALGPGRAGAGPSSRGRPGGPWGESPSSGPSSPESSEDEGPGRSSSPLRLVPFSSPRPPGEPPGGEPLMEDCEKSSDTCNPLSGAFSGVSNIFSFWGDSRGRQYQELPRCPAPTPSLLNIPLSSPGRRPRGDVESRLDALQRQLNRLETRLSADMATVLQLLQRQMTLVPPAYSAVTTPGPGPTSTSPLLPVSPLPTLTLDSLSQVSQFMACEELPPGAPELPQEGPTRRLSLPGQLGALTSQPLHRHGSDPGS

Row | SMILES | hERG current change (%, negative = inhibition) at 1uM [%]
1 | CNc1nc(N)c([N+](=O)[O-])c(NCC2CCCO2)n1 (centres unmarked) | 14.8
2 | Cc1ccc(SCC(=O)Nc2ccc(N3CCN(C)CC3)c(F)c2)cc1 | -20.9
3 | COc1ccc(-n2cnc3sccc3c2=O)cc1 | 16.4
4 | N#Cc1ccc(C(=O)OCC(=O)N2CCCC2)cc1 | 18
5 | CCCNC(=O)c1onc(CSc2ccc(Cl)cc2)c1C(=O)NCCOC | -6.65
6 | CN(CC(=O)Nc1cccnc1)S(=O)(=O)c1cc(Cl)ccc1Cl | 1.33
7 | CC(NC(=O)Nc1ccc2c(c1)OCO2)c1ccncc1 (centres unmarked) | 2.49
8 | Cc1ccc(NS(=O)(=O)c2ccc(C(=O)N3CC(C)CC(C)C3)cc2)cc1 (centres unmarked) | -0.772
9 | CCOC(=O)C(NC(=O)CC)(Nc1ccc(S(=O)(=O)Nc2cc(C)on2)cc1)C(F)(F)F (centres unmarked) | 21
10 | O=C(O)c1cc(Cl)c2c(c1)[C@@H]1C=CC[C@@H]1[C@H](c1ccc(S(=O)(=O)N3CCOCC3)cc1)N2 | -0.464
11 | Cc1nccc(-c2sc(-c3cccs3)nc2C)n1 | 2.8
12 | Cc1ccc(/C=C/C(=O)NC2=NCCS2)cc1 | 11.8
13 | Cc1nn(C)cc1/C=N/NC(=O)C(C)(C)Oc1ccc(Cl)cc1 | 11.5
14 | CC(C(=O)Nc1ccccc1-c1ccccc1)N1CCN(S(=O)(=O)c2ccccc2)CC1 (centres unmarked) | 1.45
15 | O=C(CSc1ncn[nH]1)N1CCCCC1 | 0.658
16 | Cc1ccc(C)c(NC(=O)CSc2nnc(CCNC(=O)OC(C)(C)C)o2)c1 | 3
17 | COCCn1c(SCC(=O)Nc2ccc(OC)cc2)nc2c(oc3ccccc32)c1=O | 12.4
18 | O=C(N/N=C/c1ccc(F)cc1)c1sccc1OCc1ccc(F)cc1 | 1.27
19 | CC(C)c1ccc(OCC(O)CN2CCN(c3ccccc3)CC2)cc1.Cl (centres unmarked) | 1.24

Row | SMILES | hERG current change (%, negative = inhibition) at 1uM [%]
20 | COc1ccc(NC(=O)CN2CCN(c3ccccc3C)CC2)cc1 | -10.7
21 | O=C(Oc1cccc(C(=O)N2CCOCC2)c1)c1ccc(Br)cc1 | 16.3
22 | CCCn1c(C(=O)OC)cc2c1ccn2-c1ccc(F)cc1 | 14
23 | CCC(C(=O)NC1CCCCC1)N(Cc1cccs1)C(=O)c1snc(C(N)=O)c1N (centres unmarked) | 5.07
24 | Cc1ccccc1-c1nnc(SCC(=O)N(CC(C)C)c2c(N)n(CC(C)C)c(=O)[nH]c2=O)n1C | 11.9
25 | COc1ccc2cc(C(=O)C3CCCN(C(=O)c4sc(C)nc4C)C3)ccc2c1 (centres unmarked) | 7.37
26 | COc1ccc(OC)c(NC(=O)COC(=O)CSc2ccc(Cl)cc2)c1 | 5.68
27 | N#CC1=C(N)Oc2n[nH]c(-c3ccccc3)c2C12C(=O)Nc1ccccc12 (centres unmarked) | 20.7
28 | COc1ccccc1CN(Cc1cc2c(C)ccc(C)c2[nH]c1=O)Cc1nnnn1Cc1ccco1 | 15.1
29 | O=C(O)c1ccc(C2NCC(c3ccccc3Cl)c3c2[nH]c2ccccc32)cc1 (centres unmarked) | 5.07
30 | N#Cc1ccccc1NC(=O)COC(=O)CSc1nc2ccccc2o1 | 8.1
31 | COc1ccc(-c2nnc(SCC(=O)O)n2Cc2ccccc2)cc1 | 19.8
32 | C/C(=C\C(=O)Nc1cc(C)on1)c1ccccc1 | 7.51
33 | Br.CCCCN1C2=NCCCN2c2ccccc21 | -6.43
34 | O=C(CNc1cccc(S(=O)(=O)N2CCCC2)c1)Nc1cccc(Br)c1 | 3.17
35 | CCOC(=O)N1CCN(C(=O)c2ccc3c(SCC(=O)O)c4c(nc3c2)CCC4)CC1 | 9.04
36 | Cc1nc(-c2cccc(S(=O)(=O)N3CCCC(C)C3)c2)cs1 (centres unmarked) | 12.5
37 | CC(C)NC(=O)COC(=O)C1CSC2(c3ccc(Br)cc3)CCC(=O)N12 (centres unmarked) | 2.94
38 | CCOc1ccc(N(CC)S(=O)(=O)c2ccc3c(c2)oc(=O)n3C)cc1 | 8.37

Row | SMILES | hERG current change (%, negative = inhibition) at 1uM [%]
39 | COc1ccc(C(C(=O)NC(C)(C)C)N(Cc2cccs2)C(=O)CCC(=O)Nc2cc(C)on2)cc1 (centres unmarked) | 14.9
40 | Cn1c(=O)c2c(nc(CN3CCC(C(N)=O)CC3)n2Cc2ccccc2F)n(C)c1=O | 8.26
41 | COc1cccc(CN(C(=O)/C=C/c2ccc(Cl)cc2)C2CCS(=O)(=O)C2)c1 (centres unmarked) | 5.84
42 | O=S(=O)(c1ccccc1)n1nc(-c2ccccc2)nc1NCc1ccco1 | 9.59
43 | O=C(c1ccc(Cl)cc1)[C@@H]1[C@@H]2C(=O)N(c3cccc4ccccc34)C(=O)[C@@H]2C2c3ccccc3C=NN21 (some centres unmarked) | 11.3
44 | CC(C)c1ccc(OCC(=O)NCc2ccccc2)cc1 | 2.11
45 | CN(CCCN1CCOCC1)C(=O)c1cc(COc2ccc(F)cc2F)on1 | 2.35
46 | COc1ccc(-c2c(C)n([O-])c(C)c(C)[n+]2=O)cc1OC | 14.1
47 | Cc1cc(C(=O)N/N=C/c2cc(Cl)cc([N+](=O)[O-])c2O)c2ccccc2n1 | 18.8
48 | O=C(CCl)NCC1CCCO1 (centres unmarked) | 10.1
49 | COc1ccc(C(=O)Nc2cc3c(oc2=O)CCCC3=O)cc1 | 19.1
50 | O=C(CN1CCN(c2ccc(O)cc2)CC1)Nc1ccccc1C(=O)NCCc1ccccc1 | 11.6
51 | Cc1c(C(=O)N(C)Cc2ccc(OC(F)F)cc2)oc2ccccc12 | 1.03
52 | CC(=O)N(C)c1ccc(NC(=O)Nc2ccc(C)cc2)cc1 | 6.94
53 | Cc1cc(=O)oc2cc(OC(C)C(=O)NC3CCCC3)ccc12 (centres unmarked) | -34.8
54 | COc1ccc(C(=O)Cc2nnc(C)s2)cc1 | 13.5
55 | COC(=O)c1cc2nc(-c3ccc(C)cc3)cc(C(F)(F)F)n2n1 | -6.16
56 | CC(C)(CNC(=O)c1ccc(Br)o1)N1CCOCC1 | 8.4
